# Assay results as given in PMC11995724, “Antibiotic target discovery by integrated phenotypic and activity-based profiling of electrophilic fragments” (Cell chemical biology, 2025).
# About 75 (2%) of roughly 3,200 compounds showed an effect of 50% or more. The list shows a part of the results.
# Test system: T1, S. aureus MSSA476
# T1 construct: MSSA476
# Design: species or system S. aureus MSSA476 (TSB) or V. cholerae SAD30 (LB); 384-well bacterial growth screen at 25 uM, OD600 relative to DMSO control
# Conditions: relative growth, OD600, TSB; 25 µM; inhibitor
row,SMILES,% of control remaining [%]
1,"COc1cc(NC(=O)CCl)c(OC)cc1Cl [5-C05, 2-chloro-N-(4-chloro-2,5-dimethoxyphenyl)acetamide]",100.182
2,"C=CC(=O)NCc1cn([C@@H]2COC[C@H]2OC)nn1 [1-J17, N-({1-[(3R,4S)-4-methoxyoxolan-3-yl]-1H-1,2,3-triazol-4-yl}methyl)prop-2-enamide]",115.341
3,"C=CC(=O)N(CC)CC(=O)N1CCCC(F)(F)C1 [2-G14, N-[2-(3,3-difluoropiperidin-1-yl)-2-oxoethyl]-N-ethylprop-2-enamide]",112.446
4,"Cc1nnc(C(C)NC(=O)C(C)Cl)s1 (stereo not drawn) [7-D11, 2-chloro-N-[1-(5-methyl-1,3,4-thiadiazol-2-yl)ethyl]propanamide]",108.32
5,"Cn1cc(C=C(C#N)C(=O)N2CCCC2)c(-c2cc3ccccc3o2)n1 [9-D18, 3-[3-(1-benzofuran-2-yl)-1-methyl-1H-pyrazol-4-yl]-2-(pyrrolidine-1-carbonyl)prop-2-enenitrile]",108.464
6,"Cc1ccc(-c2cc(NC(=O)CCl)n(-c3ccccc3)n2)cc1 [4-C06, 2-chloro-N-[3-(4-methylphenyl)-1-phenyl-1H-pyrazol-5-yl]acetamide]",108.623
7,"O=C(CCl)N[C@H](CO)Cc1ccccc1 [6-G20, 2-chloro-N-[(2S)-1-hydroxy-3-phenylpropan-2-yl]acetamide]",109.61
8,"O=C1NC(=O)c2cc(NC(=O)N3CCSSCC3)ccc21 [10-K22, N-(1,3-dioxo-2,3-dihydro-1H-isoindol-5-yl)-1,2,5-dithiazepane-5-carboxamide]",93.4375
9,"C=CC(=O)NCC(C)Cn1ccc(C)n1 (stereo not drawn) [2-D03, N-[2-methyl-3-(3-methyl-1H-pyrazol-1-yl)propyl]prop-2-enamide]",98.1723
10,"CC(Cl)C(=O)Nc1ccc2c(c1)ncn2CCN(C)C (stereo not drawn) [6-P15, 2-chloro-N-{1-[2-(dimethylamino)ethyl]-1H-1,3-benzodiazol-5-yl}propanamide]",89.122
11,"C=CC(=O)NC1CCOC(c2cnn(C)c2)C1 (stereo not drawn) [2-F07, N-[2-(1-methyl-1H-pyrazol-4-yl)oxan-4-yl]prop-2-enamide]",105.135
12,"C=CC(=O)N1CCCC(Oc2ccnc(C(=O)NC)c2)C1 (stereo not drawn) [2-L22, N-methyl-4-{[1-(prop-2-enoyl)piperidin-3-yl]oxy}pyridine-2-carboxamide]",110.009
13,"CC(C1CC1)N(C(=O)CCl)C1CC1 (stereo not drawn) [5-F12, 2-chloro-N-cyclopropyl-N-(1-cyclopropylethyl)acetamide]",112.204
14,"COc1ccc(C=C(C#N)C(=O)Nc2cccc(C(F)(F)F)c2)cc1 [8-A03, 2-cyano-3-(4-methoxyphenyl)-N-[3-(trifluoromethyl)phenyl]prop-2-enamide]",125.477
15,"N#CC(=Cc1cccc(Cl)c1Cl)C(N)=O [8-J21, 2-cyano-3-(2,3-dichlorophenyl)prop-2-enamide]",105.56
16,"C=CC(=O)N1CCC(C(=O)Nc2ncc(CCO)s2)CC1 [2-A08, N-[5-(2-hydroxyethyl)-1,3-thiazol-2-yl]-1-(prop-2-enoyl)piperidine-4-carboxamide]",166.754
17,"C=CC(=O)N1CCC(Cn2nc(C)cc2C)CC1 [2-C17, 1-{4-[(3,5-dimethyl-1H-pyrazol-1-yl)methyl]piperidin-1-yl}prop-2-en-1-one]",100.957
18,"C=CC(=O)NC1CS(=O)(=O)C1 [3-P18, N-(1,1-dioxo-1lambda6-thietan-3-yl)prop-2-enamide]",122.943
19,"COc1ccc2ccccc2c1C=C(C#N)C(=O)N1CCCC1 [8-P12, 3-(2-methoxynaphthalen-1-yl)-2-(pyrrolidine-1-carbonyl)prop-2-enenitrile]",74.0249
20,"Cc1ccc(S(=O)(=O)N(C)C)cc1NC(=O)C(C)Cl (stereo not drawn) [4-I06, 2-chloro-N-[5-(dimethylsulfamoyl)-2-methylphenyl]propanamide]",102.144
21,"O=C(CCl)N1CCc2sccc2C1c1cccs1 (stereo not drawn) [4-L20, 2-chloro-1-[4-(thiophen-2-yl)-4H,5H,6H,7H-thieno[3,2-c]pyridin-5-yl]ethan-1-one]",116.627
22,"Cc1ccc(C=C(C#N)C(N)=O)c(C)c1 [9-M04, 2-cyano-3-(2,4-dimethylphenyl)prop-2-enamide]",128.539
23,"C=CC(=O)Nc1ccc2c(c1)SCC(=O)N2 [1-C22, N-(3-oxo-3,4-dihydro-2H-1,4-benzothiazin-7-yl)prop-2-enamide]",112.879

row,SMILES,% of control remaining [%]
1,"O=C(CCl)Nc1cc2c(cc1[N+](=O)[O-])OCCCO2 [4-O05, 2-chloro-N-(8-nitro-3,4-dihydro-2H-1,5-benzodioxepin-7-yl)acetamide]",89.1853
2,"C=CC(=O)Nc1ccc2occc2c1 [3-H14, N-(1-benzofuran-5-yl)prop-2-enamide]",68.9595
3,"C[C@H](NC(=O)CCl)C(=O)N1CCCCC1 [7-L14, 2-chloro-N-[(2S)-1-oxo-1-(piperidin-1-yl)propan-2-yl]acetamide]",84.7724
4,"C=CC(=O)N1CCCC(CS(=O)(=O)NC)C1 (stereo not drawn) [2-E18, N-methyl-1-[1-(prop-2-enoyl)piperidin-3-yl]methanesulfonamide]",117.668
5,"C=CC(=O)NCc1cnc(N2CCOCC2)s1 [1-M03, N-{[2-(morpholin-4-yl)-1,3-thiazol-5-yl]methyl}prop-2-enamide]",100.571
6,"C=CC(=O)N(C)CC(=O)N1CCCCC1c1nc(C)no1 (stereo not drawn) [3-K17, N-methyl-N-{2-[2-(3-methyl-1,2,4-oxadiazol-5-yl)piperidin-1-yl]-2-oxoethyl}prop-2-enamide]",125.033
7,"COc1ccc2[nH]cc(C3=CCN(C(=O)C=CCN(C)C)CC3)c2c1 [10-F03, 4-(dimethylamino)-1-[4-(5-methoxy-1H-indol-3-yl)-1,2,3,6-tetrahydropyridin-1-yl]but-2-en-1-one]",87.8125
8,"C=CC(=O)NCCn1nc(C)cc1C [3-M13, N-[2-(3,5-dimethyl-1H-pyrazol-1-yl)ethyl]prop-2-enamide]",91.946
9,"C=CC(=O)N(C)c1ccccc1C(=O)NC [2-O18, N-methyl-2-(N-methylprop-2-enamido)benzamide]",115.231
10,"N#CC(C(=O)NC1CCCCC1)=C1N=C(N)c2ccccc21 [9-N06, 2-(3-amino-1H-isoindol-1-ylidene)-2-cyano-N-cyclohexylacetamide]",100.375
11,"COCCNC(=O)C(C#N)=Cc1c(Cl)cccc1Cl [8-O13, 2-cyano-3-(2,6-dichlorophenyl)-N-(2-methoxyethyl)prop-2-enamide]",150.373
12,"O=C(CCl)NC1CCCc2c1cnn2Cc1ccccc1 (stereo not drawn) [7-F20, N-(1-benzyl-4,5,6,7-tetrahydro-1H-indazol-4-yl)-2-chloroacetamide]",99.2151
13,"COc1cccc(NC(=O)C(C#N)=Cc2cccc(Cl)c2Cl)c1 [8-F06, 2-cyano-3-(2,3-dichlorophenyl)-N-(3-methoxyphenyl)prop-2-enamide]",81.3278
14,"COC(=O)c1c(C(=O)CCl)c(C)n(C2CC2)c1C [10-H03, methyl 4-(2-chloroacetyl)-1-cyclopropyl-2,5-dimethyl-1H-pyrrole-3-carboxylate]",97.1875
15,"COc1ccc(C=C(C#N)C(=O)Nc2ccccc2OC)cc1O [8-J19, 2-cyano-3-(3-hydroxy-4-methoxyphenyl)-N-(2-methoxyphenyl)prop-2-enamide]",100.249
16,"CC(Cl)C(=O)c1c(N)n(C)c(=O)n(C)c1=O (stereo not drawn) [10-F22, 6-amino-5-(2-chloropropanoyl)-1,3-dimethyl-1,2,3,4-tetrahydropyrimidine-2,4-dione]",118.75
17,"C=CC(=O)N(C)CC(=O)N1CCC(c2nc(-c3ccccc3)n[nH]2)CC1 [2-H20, N-methyl-N-{2-oxo-2-[4-(3-phenyl-1H-1,2,4-triazol-5-yl)piperidin-1-yl]ethyl}prop-2-enamide]",132.985
18,"N#CC(=Cc1cnn(Cc2ccccc2)c1)C(=O)Nc1nccs1 [9-M03, 3-(1-benzyl-1H-pyrazol-4-yl)-2-cyano-N-(1,3-thiazol-2-yl)prop-2-enamide]",106.667
19,"C=CC(=O)N(Cc1cccc2ccoc12)C1CCSCC1 [1-D04, N-[(1-benzofuran-7-yl)methyl]-N-(thian-4-yl)prop-2-enamide]",80.8791
20,"CN(C)c1ccc(C=C(C#N)C(=O)NCc2ccco2)cc1 [9-D10, 2-cyano-3-[4-(dimethylamino)phenyl]-N-[(furan-2-yl)methyl]prop-2-enamide]",96.779
21,"O=C(CCl)Cc1cccc(F)c1F [10-K17, 1-chloro-3-(2,3-difluorophenyl)propan-2-one]",103.125
22,"C=CC(=O)Nc1ccnc(OC2CCCCC2)c1 [2-A04, N-[2-(cyclohexyloxy)pyridin-4-yl]prop-2-enamide]",148.651
